Measured values published in PubChem BioAssay (Tox21).
The shares of active, inactive and inconclusive entries below differ from those in the screen. Potencies of inconclusive entries are left out as doubtful fits. Activity calls are given as the source filed them. Calls come from the whole dose curve; as a rule, active = well fitted inhibition curve with a large enough effect in the repeat runs; inconclusive = weak or mixed curves, or effect the other way; inactive = no such curve, though single readings can be large or run the other way.

The compounds below were run against Nuclear receptor ROR-gamma (Homo sapiens) (UniProt P51449) (assay: qHTS assay to identify small molecule antagonists of the retinoid-related orphan receptor gamma (ROR-gamma) signaling pathway (AID 1159521; note: nearly all actives have a fitted effect of over 50% in size)). Conditions: Tet-on RORgamma CHO cells, RORE-luciferase, 16 h; series mostly up to 92.4 µM.
Summary of the method: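 Screening format: cell-based luciferase reporter in CHO cells with doxycycline-inducible RORγ. Compound pre-exposure lasts 2 h, doxycycline is 1 uM final, induction runs 16 h at 37 C, and ONE-Glo luminescence is read.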
Potency is the fitted concentration of half-maximal effect; tags give direction and shape of the fitted curve.

Q: Which Potency does the source give for `O=[N+]([O-])c1ccc2[nH]ncc2c1` here?
A: inconclusive [inhibitor, partial curve, poor fit]

Q: For `CC(=O)Nc1ccc(N)cc1`, which Potency is on record?
A: inconclusive [inhibitor, full curve, poor fit]

Q: For `O=C1C=CC(=O)O1`, which Potency is on record?
A: inconclusive [inhibitor, full curve, poor fit]

Q: How did the Potency turn out when `OCc1ccc(Cl)cc1Cl` was run?
A: inactive

Q: How did the Potency turn out when `CCOCCOCC` was run?
A: inactive

Q: Which Potency does the source give for `CC[N+](CC)(CC(=O)Nc1c(C)cccc1C)Cc1ccccc1` (tested in a mixture with another compound) here?
A: inactive

Q: `O=C(O)c1ccc(S(=O)(=O)O)cc1C(=O)O` was tested. Which Potency did it give?
A: inconclusive [inhibitor, partial curve, poor fit]

Q: How did the Potency turn out when `CCCC(=O)Nc1ccc(OCC(O)CNC(C)C)c(C(C)=O)c1` (centres undefined) was run?
A: inactive

Q: How did the Potency turn out when `COC(=O)C(C)O` (centres undefined) was run?
A: inconclusive [inhibitor, full curve, poor fit]

Q: `OC[C@H]1O[C@H](O[C@]2(CCl)O[C@H](CCl)[C@@H](O)[C@@H]2O)[C@H](O)[C@@H](O)[C@H]1Cl` was tested. Which Potency did it give?
A: inactive

Q: With `O=C(Cl)c1cccc([N+](=O)[O-])c1` as the compound, how does the Potency read?
A: inconclusive [inhibitor, full curve, poor fit]

Q: `CN(C)CCCNCCC#N` was tested. Which Potency did it give?
A: inactive

Q: With `CCCCC(CC)COC(=O)CCCCCCCCC(=O)OCC(CC)CCCC` (centres undefined) as the compound, how does the Potency read?
A: inconclusive [inhibitor, single point]

Q: Which Potency does the source give for `OC[C@H]1O[C@@H](OCCc2ccc(O)cc2)[C@H](O)[C@@H](O)[C@@H]1O` here?
A: inconclusive [inhibitor, single point]
